The values that follow come from the RNAGym collection of RNA variant scans (doi:10.1101/gad.245936.114).

The labels stand for the following.
B1: tRNA (parent)
chain: CUCUCGGUAGCCAAGUUGGUUUAAGGCGCAAGACUUUAAUUUAUCACUACGAAAUCUUGAGAUCGGGCGUUCGACUCGCCCCCGGGAGAUUUUUUCCUCGAGCAA

Variants at the floor of the assay are shown more often than the library holds them.

The data set covers variants of B1. Put plainly: nonsense suppression (GFP-seq) (ratio to wild type); higher = more function; SUP4oc tRNA, yeast GFP reporter sort-seq. In outline: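 Each variant's nonsense suppression (GFPSEQ) is a cell-share-weighted bin median GFP/RFP relative to the unmutated parent tRNA. Yeast with genome-integrated tRNA variants from a ~3% random-mutation library, a galactose-driven GFP ochre reporter and RFP were grown in raffinose/galactose medium with 80 mg/L adenine, then sorted into GFP/RFP bins for Illumina sequencing. Variants needed ≥100 reads and ≥30 cells.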
As for CUCUCGGUAGUCAAGUUGUUUUAAGGCGCAAGACUUUAAUUUAUCACUACGAAAUCUUGAGAUCGGGCGUUCGACUCGCCCCCGGGAGAUUUUUUCCUCGAGCAA, the nonsense suppression is at most 0.026. Regarding CUCUCGGUAGCCAAGUUGGUUUAAGGCGAAAGACUUUAAUUUAUCACUACGAAAUCUUGAGAUCGGGCGUUCGUCUCGCCCCCGGGAGAUUUUUUCCUCGAGCAA, the nonsense suppression is at most 0.026. The same measure for CUUUCGGUAACCAAGUUGGUUUAAGGCGCAAGACUUUAAUUUAUCACUACGAAAUCUUGAGAUCGGGCGUUCGACUCGCCCCCGGGAGAUUUUUUCCUCGAGCAA: 0.0262.

As to CUCUCGGUAUCCAAGUUGGUUUAAGGCGCAAGACUUUAAUUUAUCACUACGAAAUCUUGAGAUCGUGCGUUCGACUCGCCCCCGAGAGAUUUUUUCCUCGAGCAA, the nonsense suppression is at most 0.026. CUCUCGGUAGCCAAGUUGGUUUAAGGCGCAAGACUUUAAUUUAUCACUACGAAAUCUUGAGAUCGGGCGUUCUACUCGCCCCCGGGAAAUUUUUUCCUCGAGCAA: the nonsense suppression was at most 0.026. For CACUCGGUAGCCAAGUUGGUUUAAGGCGCAAGACUUUAAUUUAUCACUACGAAAUCUUGAGAUCGGGCGUCCGACUCGCCCCCCGGUGAUUUUUUCCUCGAGCAA the value was at most 0.026; for CUCUCGGUAGCGAAGUUGGUUUAAGGCGCAAGACUUUAAUUUAUCACUACGAAAUCUUGAGAUCGGGCUUUCGACUCGCCCCCGGGAGAUUUUUUCCUCGAGCAA, at most 0.026. Regarding CUCUCGGUAGCCAAGUUGGUUUAAGGCGUAAGACUUUAAUUUAUCACUACGAAAUCUUGAGAUCGCGCGUUCGACUCGCACCCGGGACAUUUUUUCCUCGAGCAA, the nonsense suppression was at most 0.026.

In the case of CUCUCGGUAGCCAAGUUGGUUUAAGGCGCAAGACUUUAAUUUAUCACUACGAAAUCUUGAGACCGGGCGUACGACUCGCCCCACGGAGAUUUUUUCCUCGAGCAA, the nonsense suppression is at most 0.026. The same measure for CUCUCGGUAGCCAAGUUGGUUUAAGGCGCAAGACUUUAAUUUAUCACUACGAACUCUUGAGAUCGGGCGUUCGAGUCCCCCCCGGGAGAUUUUUUCCUCGAGCAA: at most 0.026. For CUCUCGGUAGCCAAAUUGGUAUAAGGCGCAAGACUUUAAUUUAUCACUACGAAAUCUUGAGAUCGGGCGUUCGACUCGCCCGCGGGAGAUUUUUUCCUCGAGCAA the value was at most 0.026; for CUCUUGGUAGCCAAGUUGGUUUACGGCGCAAGACUUUAAUUUAUCACUACGAAUUCUUGAGAUCGGGCGUUCGACUCGCCCCCGGGAGAUUUUUUCCUCGAGCAA, at most 0.026; for GUCUCGGUAGGCAAGUUGGUUUAAGGCGCAAGACUUUAAUUUAUCACUACGAAAUCUUGAGAUCGGGCGUUCGACACGCCCCCGGGAGAUUUUUUCCUCGAGCAA, at most 0.026. For CUCUCGGUAGCCAAGUUGGUUUAAGGUGCGAGACUUUAAUUUAUCACUACGAAAUCUUGAGAUCGGGCGUUCGACUCGCCCCCGGGAGAUUUUUUCCUCGAGCAA the value was at most 0.026. On to CUUUCGGUAGCCAAGUUGGUUUAAGGCGCAAGACUUUAAUUUAUCACUACGAAACCUUGAGAUCGGGCGUUCGACUCGCCCCCGGGAGAUUUUUUCCUCGAGCAA, for which the nonsense suppression is at most 0.026. For CUCUCGUUAGCGAAGUUGGUUUAUGGCGCAAGACUUUAAUUUAUCACUACGAAAGCUUGAGAUCGGGCGUUCGACUCGCCCCCGGGAGAUUUUUUCCUCGAGCAA the value was at most 0.026; for CACUCGGUAGCCAAGUUGGUUUGAGGCGCAAGACUUUAAUUUAUCACUACGAAAUCUUGAGAUCGGGCGUUCGACUCGCCCCCGGGAGAUUUUUUCCUCGAGCAA, at most 0.026. For CUCACGGUAGCCAAGUUGGUUUGAGGCGCAAGACUUUAAUUUAUCACUACGAAAUCUUGAGAUCGGGAGUUCGACUCGCCCCCGGGGGAUUUUUUCCUCGAGCAA the value was at most 0.026; for CUCUCGGUAGCCAAGUUGGUUUAAGGAGCCAGACUUUAAUUUAUCACUACGAAAUCUUGGGAUCGGGCGUUCGACUGGCCACCGGGAGAUUUUUUCCUCGAGCAA, at most 0.026; for CUCUCGGUAGGCAAGUUAGUUUAAGGCGCAAGACUUUAAUUUAUCACUACGAAAUCUUGCGAUCGGGCGUUCGACUCCCCCCCGGGAGAUUUUUUCCUCGAGCAA, at most 0.026.

On to CUCUCGGUAGCCAAGUUCGUUUAAGGGGCAAGACUUUAAUUUAUCACUACGAAAUCUUGAGAUCGGACCUUCGACUCGCCCCCGGGAGAUUUUUUCCUCGAGCAA, for which the nonsense suppression amounted to 1.05. For CUCUCGGUAGCCAAGUUCGUUUAAGGCGCAAGGCUUUAAUUUAUCACUACGAAAUCUUGAGAUCGGGCGUUCGACUCGCCCCCGGGAGAUUUUUUCCUCGAGCAA the value was at most 0.026; for CUCUCGGUAGCCAAGUUGGUUUAAGGCGCAAGACUUUAAUUUAUCACUACGAAAUCUAGAGAUCGAGCGUUCAACUCGCCCCCGGGAGAUUUUUUCCUCGAGCAA, at most 0.026.

Consider CUCUCGGUAGCCAAGUUGGUUUAAGGCGCAAGACUUUAAUUUAUCACUACGAAAUCUUGAGCUCGGACGUUCGACUCGCCCCCGGGAGAUUUUUUCCUCGAGCAA, for which the nonsense suppression is at most 0.026.

As for CUCUCGGUAGCCAAGUUGGUUUAAGGCGCUAUACUUUAAUUUAUCACUACGAAAUCUUGAGAUCGGACGUUCGACACGUCCCCGGGAGAUUUUUUCCUCGAGCAA, the nonsense suppression was at most 0.026. For CGCUCAGUAGCCAAGUUUGUUUAAGGCGGAAGACUUUAAUUUAUCACUACGAAAUCUUGAAAUCAGGCGUUCGACUCGCCCCCGGGAGAUUUUUUCCUCGAGCAA the value was at most 0.026; for CUCUCGGUAGCCAAGUUCGUUUAAGGCGCAAGACUUUAAUUUAUCACUACGAAAUCUUGAGAUCGGGCGGUCGAGUCGCCCCCGGGAGAUUUUUUCCUCGAGCAA, at most 0.026.
